According to the supplement of paper PMC7826260:
This is one part of the list. Cleavage of a single-stranded DNA pool by Rep nickase domains was read by sequencing for 1 h at 37 °C with 3 µM enzyme; only the middle of the 90-letter strands is printed. Values are log2 of uncut reads against the no-enzyme pool; the lower, the more was cut; hits are not called. Because reads are shares of a total, they shift together; values above 0 arise when much of the pool is cut.

Tests used:
Experiment in all cases: uncleaved DNA left, log2 of reads against the no-enzyme library (log2 ratio); higher = less cleavage (more negative = more Rep cleavage of the k-mer); sequences stand for … in CTCGTCCG…ACCGGAGA
[1] = tested on: T1, Rep nickase domain of Muscovy duck circovirus
T1 sequence (Rep 1-111, printed without the tag): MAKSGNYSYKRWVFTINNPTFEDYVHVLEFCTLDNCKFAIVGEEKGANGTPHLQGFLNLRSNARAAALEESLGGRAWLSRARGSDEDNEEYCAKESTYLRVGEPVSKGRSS
Description: (§1)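 A pool of 90-nt single-stranded DNAs with seven random bases just before the constant AC of the nick site (name = the seven bases) was cut by 3 µM recombinant His6-SUMO-tagged Rep nickase domain (300 nM DNA, 50 mM HEPES pH 8.0, 50 mM NaCl, 1 mM MnCl2, 1 h, 37 °C, three replicates). Uncut DNA was amplified and sequenced.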

[2] = tested on: T2, Rep nickase domain of banana bunchy top virus
T2 sequence (Rep 1-94, printed without the tag): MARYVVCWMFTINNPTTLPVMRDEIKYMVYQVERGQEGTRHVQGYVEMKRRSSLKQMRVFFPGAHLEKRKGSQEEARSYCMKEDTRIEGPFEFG
Description: as §1

[3] = tested on: T3, Rep nickase domain of cabbage leaf curl virus
T3 sequence (Rep 1-116, printed without the tag): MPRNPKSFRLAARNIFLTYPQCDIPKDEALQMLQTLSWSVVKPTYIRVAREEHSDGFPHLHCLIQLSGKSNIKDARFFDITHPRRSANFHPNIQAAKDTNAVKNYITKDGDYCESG
Description: as §1

[4] = tested on: T4, Rep nickase domain of chickpea chlorotic dwarf virus
T4 sequence (Rep 1-124, printed without the tag): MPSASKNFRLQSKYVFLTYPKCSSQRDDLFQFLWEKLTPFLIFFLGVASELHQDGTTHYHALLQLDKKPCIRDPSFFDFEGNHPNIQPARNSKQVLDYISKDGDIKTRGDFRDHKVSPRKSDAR
Description: as §1

[5] = tested on: T5, Rep nickase domain of faba bean necrotic yellows virus
T5 sequence (Rep 1-98, printed without the tag): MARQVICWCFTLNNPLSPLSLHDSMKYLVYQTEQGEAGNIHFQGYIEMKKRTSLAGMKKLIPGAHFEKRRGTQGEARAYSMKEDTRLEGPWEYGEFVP
Description: as §1

[6] = tested on: T6, Rep nickase domain of maize striate mosaic virus
T6 sequence (Rep 1-117, printed without the tag): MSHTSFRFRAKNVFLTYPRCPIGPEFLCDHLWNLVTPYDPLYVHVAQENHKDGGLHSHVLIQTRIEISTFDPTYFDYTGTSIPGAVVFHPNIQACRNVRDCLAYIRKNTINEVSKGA
Description: as §1

[7] = tested on: T7, Rep nickase domain of porcine circovirus 2
T7 sequence (Rep 2-116, printed without the tag): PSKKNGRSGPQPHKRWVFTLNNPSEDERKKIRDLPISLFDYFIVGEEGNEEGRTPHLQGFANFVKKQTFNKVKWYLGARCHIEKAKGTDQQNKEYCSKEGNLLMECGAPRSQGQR
Description: as §1

[8] = tested on: T8, Rep nickase domain of tomato golden mosaic virus
T8 sequence (Rep 1-124, printed without the tag): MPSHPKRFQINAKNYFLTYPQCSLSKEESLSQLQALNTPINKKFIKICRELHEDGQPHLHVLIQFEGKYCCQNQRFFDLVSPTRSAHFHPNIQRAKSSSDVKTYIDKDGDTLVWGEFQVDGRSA
Description: as §1

[9] = tested on: T9, Rep nickase domain of tomato yellow leaf curl virus
T9 sequence (Rep 1-136, printed without the tag): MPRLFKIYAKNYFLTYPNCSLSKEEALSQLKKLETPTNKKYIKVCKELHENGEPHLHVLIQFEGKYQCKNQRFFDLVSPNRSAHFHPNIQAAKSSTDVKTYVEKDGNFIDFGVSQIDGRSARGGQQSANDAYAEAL
Description: as §1

[10] = tested on: T10, Rep nickase domain of wheat dwarf virus
T10 sequence (Rep 1-137, printed without the tag): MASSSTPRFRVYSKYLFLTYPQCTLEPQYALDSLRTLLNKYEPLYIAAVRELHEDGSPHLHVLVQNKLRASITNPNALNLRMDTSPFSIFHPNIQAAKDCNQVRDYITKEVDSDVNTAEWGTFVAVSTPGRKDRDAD
Description: as §1

Sequence	uncleaved DNA left (log2) [1]	uncleaved DNA left (log2) [2]	uncleaved DNA left (log2) [3]	uncleaved DNA left (log2) [4]	uncleaved DNA left (log2) [5]	uncleaved DNA left (log2) [6]	uncleaved DNA left (log2) [7]	uncleaved DNA left (log2) [8]	uncleaved DNA left (log2) [9]	uncleaved DNA left (log2) [10]
TCGACAC	-0.0336	-0.027	0.155	0.417	-0.0152	0.42	0.0351	-0.0384	0.0604	0.0554
AGAGATC	0.182	-0.00338	0.253	0.663	0.164	0.78	0.102	0.123	-0.0389	0.079
ATTGTGT	0.0352	-0.147	-0.814	-0.755	0.0737	-1.19	-0.184	-0.062	0.0293	-0.173
TGGGGTT	0.0424	0.0513	0.476	1.23	0.133	1.89	0.214	-0.026	-0.0569	0.148
CAGCTCT	-0.0864	-0.149	-0.876	-2.88	-0.183	-0.638	-3.17	-0.326	-0.124	-0.278
TGTAGAC	0.145	0.2	0.551	0.971	0.206	1.02	0.229	0.115	0.26	0.237
ATATGAA	-0.141	-0.0789	-0.151	-0.409	-0.0263	-0.679	-0.174	-0.0304	-0.0785	-0.0348
GGGGTCC	-0.0463	-0.0558	0.603	1.52	-0.0513	1.95	0.115	-0.0665	0.034	0.096
GAGTAGA	0.291	0.104	0.274	0.477	0.0156	0.315	-1.9	0.061	0.193	0.122
CAAAGGG	-0.0362	-0.00634	-0.415	-0.416	0.0503	-1.02	0.175	-0.0083	0.0382	-0.0814
CGTATTA	-0.164	-0.099	-0.0389	-0.802	-0.0335	-0.304	-0.196	-0.00152	0.0596	0.0212
ACCGATT	-0.215	-0.0651	-0.326	-1.75	0.0387	-0.827	-0.0508	-0.161	-0.139	-0.131
TGCAGGG	0.0443	0.0346	-0.0301	0.325	-0.0316	-0.163	0.1	0.0581	-0.115	-0.103
TTAAAAC	-0.056	-0.124	0.0367	-1.24	-0.0777	-0.393	0.0935	-0.0364	-0.115	-0.0795
GGGAATA	-0.0624	0.0269	0.866	2.01	0.0313	2.23	0.154	-0.0158	-0.0182	0.169
TCAAAAA	-0.121	0.17	0.205	0.0273	0.103	-0.442	0.135	0.172	0.145	0.128
TCAAGAC	0.02	0.0144	0.136	0.296	0.0545	0.0257	0.242	0.00911	0.00454	0.0443
GCTTCAC	-0.0336	0.143	0.219	0.572	-0.00866	0.234	0.179	-0.0137	0.084	0.113
ATCTTTA	-0.137	0.0101	-0.172	-1.64	0.121	-0.733	-0.337	0.00141	-0.0573	0.0356
CCAGCAA	0.00034	-0.0289	-0.0351	-0.322	-0.0964	-0.864	0.015	0.116	-0.1	-0.0715
GTCGAAC	0.0521	-0.039	0.262	0.799	-0.219	1.37	-0.0818	-0.065	-0.124	-0.0328
CTAAATA	0.107	0.0747	-0.0786	-1.54	0.117	-0.59	-0.0227	0.113	0.0371	0.171
AACATTA	-0.175	-0.0174	-0.299	-1.83	0.0255	-0.737	-0.169	-0.107	-0.000119	0.00163
TCAAAGC	0.0574	0.11	-0.136	-0.312	0.0802	-0.997	0.205	0.0564	0.116	-0.0027
TTAGCCT	-0.179	-0.153	-0.0891	-2.11	0.0398	-0.678	-0.223	-0.195	-0.0408	-0.175
TAGCGAG	0.0911	0.2	0.0494	0.456	0.011	0.0417	0.158	0.14	0.132	0.0861
ATAGGTA	0.113	0.0576	0.25	0.927	0.0966	1.29	0.0756	0.116	-0.129	0.0416
ACGTCCT	-0.189	0.0223	-0.261	-1.78	-0.106	-0.498	-1.45	-0.0546	-0.134	-0.2
TCTCATC	0.257	0.204	0.198	0.154	0.231	-0.436	0.375	0.0415	0.0739	0.282
GCACGAC	-0.0327	-0.000501	-0.0769	0.235	-0.0622	-0.36	0.0591	-0.0212	-0.0102	-0.162
